The supplement of paper PMC4996465
Viability of KB3-1 and Nalm-6 cells after 48 h of drug alone (CellTiter-Glo), 11 doses over about 4.5 log units. % of DMSO wells, lower = more cell loss; AC50 from the fitted curve, lower = more potent. No active / inactive call. Nalm-6 was screened in two runs. AC50 is listed only for well-fitted inhibitory curves. KB3-1 is a HeLa-derived carcinoma line, Nalm-6 a B-cell precursor leukaemia line.

Key:
KB3-1 [1] = assay: viability (% of DMSO control); higher = more viable cells
Protocol: (§1)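 Eleven-dose screen of the NCATS MIPE 3 library on cells without co-treatment; CellTiter-Glo after 48 h, as % of DMSO wells.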

Nalm-6 [2] = assay: as above
Protocol: as §1

KB3-1 [3] = assay: log AC50 of viability decrease (48 h) (log10 M); higher = less potent
Protocol: (§2)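 Eleven-dose screen of the NCATS MIPE 3 library on cells without co-treatment; CellTiter-Glo after 48 h. AC50 from the curve fit; only inhibitory curves of the better fit classes are listed.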

Nalm-6 [4] = assay: as above
Protocol: as §2

Structure (SMILES) | viability (KB3-1 [1]; 0.00078 µM) | viability (KB3-1 [1]; 0.00234 µM) | viability (KB3-1 [1]; 0.00702 µM) | viability (KB3-1 [1]; 0.0211 µM) | viability (KB3-1 [1]; 0.0632 µM) | viability (KB3-1 [1]; 0.19 µM) | viability (KB3-1 [1]; 0.569 µM) | viability (KB3-1 [1]; 1.71 µM) | viability (KB3-1 [1]; 5.12 µM) | viability (KB3-1 [1]; 15.4 µM) | viability (KB3-1 [1]; 46.1 µM) | viability (Nalm-6 [2]; run: 1, 0.00078 µM) | viability (Nalm-6 [2]; run: 1, 0.00234 µM) | viability (Nalm-6 [2]; run: 1, 0.00702 µM) | viability (Nalm-6 [2]; run: 1, 0.0211 µM) | viability (Nalm-6 [2]; run: 1, 0.0632 µM) | viability (Nalm-6 [2]; run: 1, 0.19 µM) | viability (Nalm-6 [2]; run: 1, 0.569 µM) | viability (Nalm-6 [2]; run: 1, 1.71 µM) | viability (Nalm-6 [2]; run: 1, 5.12 µM) | viability (Nalm-6 [2]; run: 1, 15.4 µM) | viability (Nalm-6 [2]; run: 1, 46.1 µM) | viability (Nalm-6 [2]; run: 2, 0.00078 µM) | viability (Nalm-6 [2]; run: 2, 0.00234 µM) | viability (Nalm-6 [2]; run: 2, 0.00702 µM) | viability (Nalm-6 [2]; run: 2, 0.0211 µM) | viability (Nalm-6 [2]; run: 2, 0.0632 µM) | viability (Nalm-6 [2]; run: 2, 0.19 µM) | viability (Nalm-6 [2]; run: 2, 0.569 µM) | viability (Nalm-6 [2]; run: 2, 1.71 µM) | viability (Nalm-6 [2]; run: 2, 5.12 µM) | viability (Nalm-6 [2]; run: 2, 15.4 µM) | viability (Nalm-6 [2]; run: 2, 46.1 µM) | log AC50 of viability decrease (KB3-1 [3]) | log AC50 of viability decrease (Nalm-6 [4]; run: 1) | log AC50 of viability decrease (Nalm-6 [4]; run: 2)
CCN1CCN(Cc2ccc(-c3cc4c(N[C@H](C)c5ccccc5)ncnc4[nH]3)cc2)CC1 [AEE-788] | 99.7% | 98.8% | 102% | 101% | 101% | 96.5% | 90.9% | 93% | 95.5% | 83.5% | 2.42% | 95.2% | 96.6% | 95.7% | 105% | 101% | 99.2% | 93.7% | 83.4% | 69.5% | 48.6% | 1.03% | 92.5% | 104% | 101% | 97.3% | 99% | 98.3% | 97.6% | 90% | 83.4% | 47.4% | 1.45% | -4.63 | -4.78 | -4.78
O=C(O)c1ccc2cc(-c3ccc(O)c(C45CC6CC(CC(C6)C4)C5)c3)ccc2c1 [AHPN] | 97.4% | 106% | 102% | 104% | 96.5% | 92.3% | 104% | 95.6% | 76.1% | 68.2% | 11.4% | 96.7% | 113% | 107% | 107% | 71.3% | 2.72% | 1.54% | 0.939% | 0.862% | 0.676% | -0.893% | 95.9% | 114% | 106% | 113% | 95.6% | 4.33% | 3.66% | 4.46% | 3.1% | 4.68% | 1.62% | -4.73 | -7.08 | -7.03
Cc1ccc(C(=O)Nc2cccc(C(F)(F)F)c2)cc1-c1ccc2nc(NCCN3CCOCC3)ncc2c1 [AMG-47a] | 106% | 104% | 113% | 116% | 119% | 111% | 106% | 87.7% | 64.4% | 50.4% | 9.2% | 113% | 109% | 102% | 114% | 116% | 102% | 105% | 85.9% | 75% | 47.7% | 0.41% | 96.2% | 104% | 104% | 103% | 98.6% | 101% | 92% | 94% | 70.6% | 42% | 0.202% | -4.88 | -4.78 | -4.83
COC1=C(OCCCN2CCOCC2)C=C3N=CC=C(OC4=CC=C(C=C4F)\C5=C\N=C(\NC6=CC=C(F)C=C6)N(C)C5=O)C3=C1 [AMG-51] | 100% | 102% | 97.6% | 102% | 101% | 93.5% | 97% | 88.8% | 84% | 75.2% | 2.19% | 95.1% | 96% | 100% | 105% | 109% | 100% | 91.4% | 88.4% | 72.7% | 37.4% | 0.953% | 103% | 97.2% | 99.4% | 96.5% | 101% | 90.9% | 90.5% | 88% | 65.9% | 56.6% | 1.57% | -4.68 | -4.83 | -4.73
CNc1nccc(-c2cccnc2Oc2cc(C(=O)Nc3cccc(C(F)(F)F)c3)ccc2C)n1 [AMG-Tie2-1] | 103% | 106% | 103% | 102% | 109% | 103% | 105% | 99% | 96% | 88.8% | 5.96% | 101% | 106% | 96.8% | 102% | 99.4% | 106% | 103% | 100% | 70.1% | 54.9% | 4.84% | 98.6% | 106% | 100% | 101% | 96.7% | 99.4% | 102% | 103% | 76.5% | 46.4% | 5.19% | -4.63 | -4.83 | -4.83
CC(C)[C@H](C(=O)Nc1ccc(C(=O)NO)cc1)c1ccccc1 [AR-42] | 101% | 101% | 98.9% | 86.9% | 73.7% | 46.5% | 30.9% | 21.6% | 14.3% | 16.9% | 9.22% | 104% | 115% | 119% | 88% | 14% | 2.08% | 0.78% | 0.497% | 0.256% | -0.0154% | -0.543% | 108% | 116% | 114% | 92.1% | 30.3% | 5.62% | 2.63% | 2.38% | 2.3% | 1.7% | 0.859% | -6.88 | -7.48 | -7.38
C[C@H]1[C@@H](CC(C[C@H]2O[C@@H]3O[C@]4(C)CC[C@H]5[C@H](C)CC[C@@H]([C@H]2C)[C@@]35OO4)CS(=O)(=O)c2ccc(COC(=O)N(C)C)cc2)O[C@@H]2O[C@]3(C)CC[C@H]4[C@H](C)CC[C@@H]1[C@@]24OO3 [ASR-isobudimer-SO2Ph-4-CH2OC(O)NMe2] | 96.8% | 98.2% | 100% | 91.8% | 99.5% | 77.8% | 41.8% | 36.5% | 24.1% | 19.9% | 7.93% | 101% | 104% | 92.2% | 81% | 30.6% | 14.4% | 9.14% | 8.31% | 9.57% | 7.05% | 3.61% | 110% | 106% | 106% | 91.3% | 15.9% | 6.99% | 4.42% | 4.68% | 5.08% | 5.21% | 2.74% | -6.38 | -7.43 | -7.48
